The other results are listed elsewhere or left out. Single values of this set are uncertain.
T1: GRAP2_SH3_2_O75791_274_329
T1 chain: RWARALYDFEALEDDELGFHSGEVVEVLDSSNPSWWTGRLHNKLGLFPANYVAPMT

T2: GGA1_VHS__Q9UJY5_1_157
T2 chain: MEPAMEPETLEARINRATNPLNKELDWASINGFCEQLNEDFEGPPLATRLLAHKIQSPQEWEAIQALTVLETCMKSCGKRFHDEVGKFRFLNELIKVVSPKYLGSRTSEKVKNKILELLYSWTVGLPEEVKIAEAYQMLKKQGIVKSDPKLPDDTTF

T3: PIK3R1_SH3_1_P27986_6_78
T3 chain: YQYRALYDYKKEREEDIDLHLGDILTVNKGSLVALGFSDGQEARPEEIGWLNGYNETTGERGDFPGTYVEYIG

T4: GGA3_VHS__Q9NZ52_1_166
T4 chain: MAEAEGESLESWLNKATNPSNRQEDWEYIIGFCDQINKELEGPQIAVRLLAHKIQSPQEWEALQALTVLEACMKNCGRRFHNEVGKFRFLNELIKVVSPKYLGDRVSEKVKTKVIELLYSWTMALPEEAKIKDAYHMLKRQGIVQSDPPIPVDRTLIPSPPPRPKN

T5: IRS2_PTB__Q9Y4H2_188_304
T5 chain: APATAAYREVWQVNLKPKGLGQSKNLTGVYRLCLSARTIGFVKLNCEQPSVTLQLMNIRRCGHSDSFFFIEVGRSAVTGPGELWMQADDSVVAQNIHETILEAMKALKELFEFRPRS


Biological target: T1, GRAP2_SH3_2_O75791_274_329
Assay: mutation enrichment score (mutant vs wild-type peptide binding to bait); baits are purified protein domains named by gene / domain / UniProt id / residues; peptides come from disordered regions of human proteins; higher = mutation enhances binding relative to wild type
Conditions: number of wild-type / mutant comparisons summed (bounds the score): 6; paper call: no_effect; wild-type window: …

Binder | mutation enrichment score
IKYNEEKRHVDQPIDYSLKYPTDIPSSQKQSFSFSKSSSGQ [A1184P A1184P] | 4
DKAPEPRPEPVRASKPAPPPEALQTLALPLTPYAQIIQSLQ [Q2233E Q2233E] | 5.3
DKAPEPRPEPVRASKPAPPPKALQTLALPLTPYAQIIQSLQ [Q2233K Q2233K] | -5
LAQQWDQLDQLGMRMQHNLEEQIQARNTTGVTEEALKEFSM [Q2310E Q2310E] | -2

Biological target: T2, GGA1_VHS__Q9UJY5_1_157
Assay: as above
Conditions: number of wild-type / mutant comparisons summed (bounds the score): 5; paper call: no_effect; wild-type window: …

Binder | mutation enrichment score
IQDSFASPDLPLLTCLTQDQKFAPDSLFHQSELSFAPLRGI [E237K E237K] | -1.6
PEASDGSGSWEDAALLTEANPPAPAPASASAPVLETLGSSE [L363P L363P] | 1
TGDLDLLSAFRRTSLAGGGRWISDSHEDTGILDFSSLLKKR [R282W R282W] | 5
EAPSQEQKNLAAIQEGENIFCLAVEDIETDTELLIGYLDSD [Y107C Y107C] | 5
AVTPLKRAGWQCPECKVCQNSKQSGEDSKMLVCDTCDKGYH [C394S C394S] | 2
TTDMEDGPIVKLASNLGVEDENLLCGEELSYPNVFLVFLNG [V523E V523E] | 3
RNESLAQYNPKLDVKLLYPVYKYQQDQVVKEDNIEAVGKKL [S429Y S429Y] | -3
ALQDTDDSDDDPVLIPGARYQAGPGDRRSAVARIQEFFRRR [R670Q R670Q] | 2
SGRARQQDEEMLELPAPAEVTAKNQSLEGDTTKGTSEMSEK [A441T A441T] | 5
YDTIYAHQDKRDDVLIGLKSAALRFGENTKPWLSGFSVAML [T267A T267A] | -3.4
LHKVLNQLEELLSDMKADVTLLPATLSRIPPIAARLQMSER [R1881L R1881L] | 2
PSRAVRQSVTSFPDADAFHHHVHDDDLLSSSEEECKDRERP [Q133H Q133H] | -2.5
ISSGRARQQDEEMLELPAPAKVAAKNQSLEGDTTKGTSEMS [E439K E439K] | 4
TPVMMAAVKTYRWQCIECKCWNICGTSENDDQLLFCDDCDR [C330W C330W] | 5
TEDKTDISSGRARQQDEEMLKLPAPAEVAAKNQSLEGDTTK [E433K E433K] | 0

Biological target: T3, PIK3R1_SH3_1_P27986_6_78
Assay: as above
Conditions: number of wild-type / mutant comparisons summed (bounds the score): 9; paper call: no_effect; wild-type window: …

Binder | mutation enrichment score
DKAPEPRPEPVRASKPAPPPEALQTLALPLTPYAQIIQSLQ [Q2233E Q2233E] | -3.4

Same assay, conditions: number of wild-type / mutant comparisons summed (bounds the score): 9; paper call: diminished; wild-type window: …

Binder | mutation enrichment score
DKAPEPRPEPVRASKPAPPPKALQTLALPLTPYAQIIQSLQ [Q2233K Q2233K] | -7

Biological target: T2, GGA1_VHS__Q9UJY5_1_157
Assay: as above
Conditions: number of wild-type / mutant comparisons summed (bounds the score): 10; paper call: enhanced; wild-type window: …

Binder | mutation enrichment score
ALYFSLVAKRLHPDEDDTLVDSPAVTPVSARVPRVRPPHGF [E3632D E3632D] | 6
EDGPIVKLASNLGVEDVNLLRGEELSYPNVFLVFLNGNILG [C527R C527R] | 10
RHGDLNRFLRSHGPDAKLLAVGEDVAPGPLGLGQLLAVASQ [G613V G613V] | 9.3
TEDKTDISSGRARQQDEEMLQLPAPAEVAAKNQSLEGDTTK [E433Q E433Q] | 7

Biological target: NEDD4_WW_2_P46934_765_803
Sequence (chain, as listed by the source): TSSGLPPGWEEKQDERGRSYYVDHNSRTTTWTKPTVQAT
Assay: as above
Conditions: number of wild-type / mutant comparisons summed (bounds the score): 6; paper call: no_effect; wild-type window: …

Binder | mutation enrichment score
ALYFSLVAKRLHPDEDDTLVDSPAVTPVSARVPRVRPPHGF [E3632D E3632D] | -6

Biological target: T4, GGA3_VHS__Q9NZ52_1_166
Assay: as above
Conditions: number of wild-type / mutant comparisons summed (bounds the score): 6; paper call: no_effect; wild-type window: …

Binder | mutation enrichment score
TGDLDLLSAFRRTSLAGGGRWISDSHEDTGILDFSSLLKKR [R282W R282W] | 5
EAPSQEQKNLAAIQEGENIFCLAVEDIETDTELLIGYLDSD [Y107C Y107C] | 2
MPTVISASVAPRTAAEPRSPEPVPHPAQSKATEAGGGNPSG [G21E G21E] | -1
KNVKVNFDNVGFGYLSLLQVDTFKGWMDIMYAAVDSRNVEL [A1429D A1429D] | 5
SGRMTFALCCYSLTFMRFAYEVQPRNWLLFACHATNEVAQL [K72E K72E] | 2
TPVMMAAVKTYRWQCIECKCWNICGTSENDDQLLFCDDCDR [C330W C330W] | 5

Biological target: T2, GGA1_VHS__Q9UJY5_1_157
Assay: as above
Conditions: number of wild-type / mutant comparisons summed (bounds the score): 15; paper call: enhanced; wild-type window: …

Binder | mutation enrichment score
DKELQTASIFGSAKASQEADSVLILQDRKLVTGPGKRYLQV [N585S N585S] | 7.5

Biological target: Intersectin-1_SH3_1_Q15811_740_806
Assay: as above
Conditions: number of wild-type / mutant comparisons summed (bounds the score): 6; paper call: no_effect; wild-type window: …

Binder | mutation enrichment score
ERQMDDLEGAAPPIPPRLHSKDKRKTPLKVLEEWKTHLIPS [E739K E739K] | -4.9

Biological target: Intersectin-1_SH3_3_Q15811_1002_1060
Assay: as above
Conditions: number of wild-type / mutant comparisons summed (bounds the score): 6; paper call: no_effect; wild-type window: …

Binder | mutation enrichment score
ERQMDDLEGAAPPIPPRLHSKDKRKTPLKVLEEWKTHLIPS [E739K E739K] | -4.9
NMRVEDYEPYPDDGMGYGDYLKLPDRSQHERDPWYSWDQPG [P76L P76L] | -3
NMRVEDYEPYPDDGMGYGDYQKLPDRSQHERDPWYSWDQPG [P76Q P76Q] | -3

Biological target: Intersectin-1_SH3_5_Q15811_1155_1214
Assay: as above
Conditions: number of wild-type / mutant comparisons summed (bounds the score): 6; paper call: no_effect; wild-type window: …

Binder | mutation enrichment score
ERQMDDLEGAAPPIPPRLHSKDKRKTPLKVLEEWKTHLIPS [E739K E739K] | -4.4

Biological target: SNX9_SH3_1_Q9Y5X1_3_61
Sequence (chain, as listed by the source): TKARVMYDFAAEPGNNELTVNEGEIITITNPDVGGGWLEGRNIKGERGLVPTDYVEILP
Assay: as above
Conditions: number of wild-type / mutant comparisons summed (bounds the score): 6; paper call: no_effect; wild-type window: …

Binder | mutation enrichment score
ERQMDDLEGAAPPIPPRLHSKDKRKTPLKVLEEWKTHLIPS [E739K E739K] | -4.4

Biological target: Src_SH3__P12931_87_144
Assay: as above
Conditions: number of wild-type / mutant comparisons summed (bounds the score): 6; paper call: no_effect; wild-type window: …

Binder | mutation enrichment score
ERQMDDLEGAAPPIPPRLHSKDKRKTPLKVLEEWKTHLIPS [E739K E739K] | -4.7

Biological target: T5, IRS2_PTB__Q9Y4H2_188_304
Assay: as above
Conditions: number of wild-type / mutant comparisons summed (bounds the score): 6; paper call: no_effect; wild-type window: …

Binder | mutation enrichment score
DMFNFETFGNSMICLFQITTFAGWDGLLAPILNSKPPDCDP [S1723F S1723F] | 5
NMVGPDWKKRWLYWKNRTQERCVHNETKNELEKMLKCNEEH [Q785R Q785R] | -1
NAIENMVGPDWKKRWLYWKNWTQEQCVHNETKNELEKMLKC [R781W R781W] | -1
NDSDDSISAATNKGRGRGRGQRGGRGQNSASRGGSQRGRAD [R576Q R576Q] | -1

Biological target: T1, GRAP2_SH3_2_O75791_274_329
Assay: as above
Conditions: number of wild-type / mutant comparisons summed (bounds the score): 18; paper call: diminished; wild-type window: …

Binder | mutation enrichment score
IQPSDCHTTVRPAKPPVVDRYLKPGALSNSESIPTIDGLRH [S236Y S236Y] | -8.7

Biological target: Intersectin-1_SH3_2_Q15811_913_971
Assay: as above
Conditions: number of wild-type / mutant comparisons summed (bounds the score): 12; paper call: no_effect; wild-type window: …

Binder | mutation enrichment score
IQPSDCHTTVRPAKPPVVDRYLKPGALSNSESIPTIDGLRH [S236Y S236Y] | -2
IQPSDCHTTVRPAKPPVVDRFLKPGALSNSESIPTIDGLRH [S236F S236F] | -0.42

Biological target: T1, GRAP2_SH3_2_O75791_274_329
Assay: as above
Conditions: number of wild-type / mutant comparisons summed (bounds the score): 18; paper call: no_effect; wild-type window: …

Binder | mutation enrichment score
IQPSDCHTTVRPAKPPVVDRFLKPGALSNSESIPTIDGLRH [S236F S236F] | -1.1

Biological target: T4, GGA3_VHS__Q9NZ52_1_166
Assay: as above
Conditions: number of wild-type / mutant comparisons summed (bounds the score): 6; paper call: enhanced; wild-type window: …

Binder | mutation enrichment score
SGRARQQDEEMLELPAPAEVTAKNQSLEGDTTKGTSEMSEK [A441T A441T] | 6
ISSGRARQQDEEMLELPAPAKVAAKNQSLEGDTTKGTSEMS [E439K E439K] | 6
TEDKTDISSGRARQQDEEMLQLPAPAEVAAKNQSLEGDTTK [E433Q E433Q] | 6

Biological target: REPS1___Q96D71_226_314
Assay: as above
Conditions: number of wild-type / mutant comparisons summed (bounds the score): 6; paper call: no_effect; wild-type window: …

Binder | mutation enrichment score
NDSDDSISAATNKGRGRGRGQRGGRGQNSASRGGSQRGRAD [R576Q R576Q] | -4
NDSDDSISAATNKGRGRGRGGRGGRGQNSASRGGSQRGRAD [R576G R576G] | -4

Biological target: T5, IRS2_PTB__Q9Y4H2_188_304
Assay: as above
Conditions: number of wild-type / mutant comparisons summed (bounds the score): 12; paper call: no_effect; wild-type window: …

Binder | mutation enrichment score
NDSDDSISAATNKGRGRGRGGRGGRGQNSASRGGSQRGRAD [R576G R576G] | 0

Biological target: T2, GGA1_VHS__Q9UJY5_1_157
Assay: as above
Conditions: number of wild-type / mutant comparisons summed (bounds the score): 10; paper call: diminished; wild-type window: …

Binder | mutation enrichment score
KVAAYDKLEKTKTRLQQELDGLLVDLDHQRQSACNLEKKQK [D1424G D1424G] | -10
KVAAYDKLEKTKTRLQQELDYLLVDLDHQRQSACNLEKKQK [D1424Y D1424Y] | -10
KVAAYDKLEKTKTRLQQELDHLLVDLDHQRQSACNLEKKQK [D1424H D1424H] | -10
KVAAYDKLEKTKTRLQQELDNLLVDLDHQRQSACNLEKKQK [D1424N D1424N] | -10

Biological target: T4, GGA3_VHS__Q9NZ52_1_166
Assay: as above
Conditions: number of wild-type / mutant comparisons summed (bounds the score): 12; paper call: diminished; wild-type window: …

Binder | mutation enrichment score
KVAAYDKLEKTKTRLQQELDGLLVDLDHQRQSACNLEKKQK [D1424G D1424G] | -8
KVAAYDKLEKTKTRLQQELDYLLVDLDHQRQSACNLEKKQK [D1424Y D1424Y] | -8
KVAAYDKLEKTKTRLQQELDHLLVDLDHQRQSACNLEKKQK [D1424H D1424H] | -8
KVAAYDKLEKTKTRLQQELDNLLVDLDHQRQSACNLEKKQK [D1424N D1424N] | -8

Biological target: Intersectin-1_SH3_1_Q15811_740_806
Assay: as above
Conditions: number of wild-type / mutant comparisons summed (bounds the score): 12; paper call: diminished; wild-type window: …

Binder | mutation enrichment score
NMRVEDYEPYPDDGMGYGDYLKLPDRSQHERDPWYSWDQPG [P76L P76L] | -10
NMRVEDYEPYPDDGMGYGDYQKLPDRSQHERDPWYSWDQPG [P76Q P76Q] | -10

— the supplement of paper PMC11369174, “Proteome-scale characterisation of motif-based interactome rewiring by disease mutations” (Molecular Systems Biology, 2024)
